The text below walks through data of patent US20210047304A1, “Bromodomain Inhibitors” (AbbVie Inc., priority 2016, published 2021).

The assay has as its target BRD4 (BDII_E352-M457) (Homo sapiens, UniProt O60885). Nature of the assay: TR-FRET bromodomain binding assay, BRD4 BDII.

Regarding `CC(=O)N(C)[C@H]1CC[C@H](Oc2cc(=O)n(C)cc2-c2cc(C(C)(C)O)ccc2Oc2c(C)cc(F)cc2C)CC1` [Example 16, N-[trans-4-({5-[2-(4-fluoro-2,6-dimethylphenoxy)-5-(2-hydroxypropan-2-yl)phenyl]-1-methyl-2-oxo-1,2-dihydropyridin-4-yl}oxy)cyclohexyl]-N-methylacetamide], the Ki (commonly the dissociation constant of the complex between target and ligand, obtained from inhibition or displacement) came to 2.43 nM. This counts as single-digit nanomolar.

The molecule `COCCN(C(=O)C1(C)CC1)[C@H]1CC[C@H](Oc2cc(=O)n(C)cc2-c2cc(C(C)(C)O)ccc2Oc2c(C)cc(F)cc2C)CC1` [Example 64, N-[trans-4-({5-[2-(4-fluoro-2,6-dimethylphenoxy)-5-(2-hydroxypropan-2-yl)phenyl]-1-methyl-2-oxo-1,2-dihydropyridin-4-yl}oxy)cyclohexyl]-N-(2-methoxyethyl)-1-methylcyclopropane-1-carboxamide] had a Ki of 6.72 nM. This Ki lies about 2.8-fold higher than the previous one.

`Cc1cc(F)cc(C)c1Oc1ccc(C(C)(C)O)cc1-c1cn(C)c(=O)cc1O[C@H]1CC[C@H](N2C(=O)CCC2=O)CC1` [Example 44, 1-[trans-4-({5-[2-(4-fluoro-2,6-dimethylphenoxy)-5-(2-hydroxypropan-2-yl)phenyl]-1-methyl-2-oxo-1,2-dihydropyridin-4-yl}oxy)cyclohexyl]pyrrolidine-2,5-dione] yielded an inhibitory constant (Ki) of 2.63 nM.

Consider `CC(=O)NN[C@H]1CC[C@H](Oc2cc(=O)n(C)cc2-c2cc(C(C)(C)O)ccc2Oc2c(C)cc(F)cc2C)CC1` [Example 105, N′-[trans-4-({5-[2-(4-fluoro-2,6-dimethylphenoxy)-5-(2-hydroxypropan-2-yl)phenyl]-1-methyl-2-oxo-1,2-dihydropyridin-4-yl}oxy)cyclohexyl]acetohydrazide], for which the Ki was found to be 68.3 nM.

The molecule `CCN1CC(=O)N([C@H]2CC[C@H](Oc3cc(=O)n(C)cc3-c3cc(C(C)(C)O)ccc3Oc3c(C)cc(F)cc3C)CC2)C1=O` [Example 127, 1-ethyl-3-[trans-4-({5-[2-(4-fluoro-2,6-dimethylphenoxy)-5-(2-hydroxypropan-2-yl)phenyl]-1-methyl-2-oxo-1,2-dihydropyridin-4-yl}oxy)cyclohexyl]imidazolidine-2,4-dione] showed a Ki of 6.77 nM.

`COC(=O)N[C@H]1CC[C@H](Oc2cc(=O)n(C)cc2-c2cc(C(C)(C)O)ccc2Oc2c(C)cc(F)cc2C)CC1` [Example 4, methyl [trans-4-({5-[2-(4-fluoro-2,6-dimethylphenoxy)-5-(2-hydroxypropan-2-yl)phenyl]-1-methyl-2-oxo-1,2-dihydropyridin-4-yl}oxy)cyclohexyl]carbamate] came in with a Ki of 2.44 nM.

Consider `COCC(=O)N[C@H]1CC[C@H](Oc2cc(=O)n(C)cc2-c2cc(C(C)(C)O)ccc2Oc2c(C)cc(F)cc2C)CC1` [Example 53, N-[trans-4-({5-[2-(4-fluoro-2,6-dimethylphenoxy)-5-(2-hydroxypropan-2-yl)phenyl]-1-methyl-2-oxo-1,2-dihydropyridin-4-yl}oxy)cyclohexyl]-2-methoxyacetamide], for which the Ki was 2.95 nM.

On to `Cc1cc(F)cc(C)c1Oc1ccc(C(C)(C)O)cc1-c1cn(C)c(=O)cc1O[C@H]1CC[C@H](N2CCCN(C)C2=O)CC1` [Example 41, 1-[trans-4-({5-[2-(4-fluoro-2,6-dimethylphenoxy)-5-(2-hydroxypropan-2-yl)phenyl]-1-methyl-2-oxo-1,2-dihydropyridin-4-yl}oxy)cyclohexyl]-3-methyltetrahydropyrimidin-2(1H)-one], for which the Ki was 1.2 nM. This Ki lies about 2.5-fold lower than the previous one.

On to `Cc1cc(F)cc(C)c1Oc1ccc(C(C)(C)O)cc1-c1cn(C)c(=O)cc1O[C@H]1CC[C@H](N2C(=O)N(C)C(C)(C)C2=O)CC1` [Example 142, 3-[trans-4-({5-[2-(4-fluoro-2,6-dimethylphenoxy)-5-(2-hydroxypropan-2-yl)phenyl]-1-methyl-2-oxo-1,2-dihydropyridin-4-yl}oxy)cyclohexyl]-1,5,5-trimethylimidazolidine-2,4-dione], for which affinity was put at a Ki of 9.67 nM.

In turn, `Cc1cc(F)cc(C)c1Oc1ccc(C(C)(C)O)cc1-c1cn(C)c(=O)cc1O[C@H]1CC[C@H](N2C(=O)COC2=O)CC1` [Example 82, 3-[trans-4-({5-[2-(4-fluoro-2,6-dimethylphenoxy)-5-(2-hydroxypropan-2-yl)phenyl]-1-methyl-2-oxo-1,2-dihydropyridin-4-yl}oxy)cyclohexyl]-1,3-oxazolidine-2,4-dione] gave a Ki of 3.93 nM.

Molecule `Cc1cc(F)cc(C)c1Oc1ccc(C(C)(C)O)cc1-c1cn(C)c(=O)cc1O[C@H]1CC[C@@H](C#N)CC1` [Example 68, cis-4-({5-[2-(4-fluoro-2,6-dimethylphenoxy)-5-(2-hydroxypropan-2-yl)phenyl]-1-methyl-2-oxo-1,2-dihydropyridin-4-yl}oxy)cyclohexane-1-carbonitrile] registered a Ki of 34.7 nM.

Regarding `COCCN1CC(=O)N([C@H]2CC[C@H](Oc3cc(=O)n(C)cc3-c3cc(C(C)(C)O)ccc3Oc3c(C)cc(F)cc3C)CC2)C1=O` [Example 135, 3-[trans-4-({5-[2-(4-fluoro-2,6-dimethylphenoxy)-5-(2-hydroxypropan-2-yl)phenyl]-1-methyl-2-oxo-1,2-dihydropyridin-4-yl}oxy)cyclohexyl]-1-(2-methoxyethyl)imidazolidine-2,4-dione], affinity was put at a Ki of 3.7 nM.

`Cc1cc(F)cc(C)c1Oc1ccc(C(C)(C)O)cc1-c1cn(C)c(=O)cc1O[C@H]1CC[C@H](N2C(=O)[C@H]3CCCN3C2=O)CC1` [Example 138, (7aR)-2-[trans-4-({5-[2-(4-fluoro-2,6-dimethylphenoxy)-5-(2-hydroxypropan-2-yl)phenyl]-1-methyl-2-oxo-1,2-dihydropyridin-4-yl}oxy)cyclohexyl]tetrahydro-1H-pyrrolo[1,2-c]imidazole-1,3(2H)-dione] returned an inhibition constant (Ki) of 3.59 nM.

Molecule `Cc1cc(F)cc(C)c1Oc1ccc(C(C)(C)O)cc1-c1cn(C)c(=O)cc1O[C@H]1CC[C@H](n2cccnc2=O)CC1` [Example 143, 1-[trans-4-({5-[2-(4-fluoro-2,6-dimethylphenoxy)-5-(2-hydroxypropan-2-yl)phenyl]-1-methyl-2-oxo-1,2-dihydropyridin-4-yl}oxy)cyclohexyl]pyrimidin-2(1H)-one] came in with a Ki of 94.7 nM.

The molecule `Cc1cc(F)cc(C)c1Oc1ccc(C(C)(C)O)cc1-c1cn(C)c(=O)cc1O[C@H]1CC[C@H](NC(=O)C2(C)CC2)CC1` [Example 51, N-[trans-4-({5-[2-(4-fluoro-2,6-dimethylphenoxy)-5-(2-hydroxypropan-2-yl)phenyl]-1-methyl-2-oxo-1,2-dihydropyridin-4-yl}oxy)cyclohexyl]-1-methylcyclopropane-1-carboxamide] showed a Ki of 2.33 nM.

Regarding `Cc1cc(F)cc(C)c1Oc1ccc(C(C)(C)O)cc1-c1cn(C)c(=O)cc1O[C@H]1CC[C@H](N2C(=O)CNC2=O)CC1` [Example 125, 3-[trans-4-({5-[2-(4-fluoro-2,6-dimethylphenoxy)-5-(2-hydroxypropan-2-yl)phenyl]-1-methyl-2-oxo-1,2-dihydropyridin-4-yl}oxy)cyclohexyl]imidazolidine-2,4-dione], the inhibition constant Ki worked out at 5.5 nM. Against the preceding molecule, the Ki is about 2.4-fold higher.

For `Cc1cc(F)cc(C)c1Oc1ccc(C(C)(C)O)cc1-c1cn(C)c(=O)cc1O[C@H]1CC[C@H](N2CCOCC2=O)CC1` [Example 40, 4-[trans-4-({5-[2-(4-fluoro-2,6-dimethylphenoxy)-5-(2-hydroxypropan-2-yl)phenyl]-1-methyl-2-oxo-1,2-dihydropyridin-4-yl}oxy)cyclohexyl]morpholin-3-one], the affinity corresponds to a Ki of 2.59 nM.

In the case of `Cc1cc(F)cc(C)c1Oc1ccc(C(C)(C)O)cc1-c1cn(C)c(=O)cc1O[C@H]1CC[C@H](N2CC(C)(C)CC2=O)CC1` [Example 120, 4-{[trans-4-(4,4-dimethyl-2-oxopyrrolidin-1-yl)cyclohexyl]oxy}-5-[2-(4-fluoro-2,6-dimethylphenoxy)-5-(2-hydroxypropan-2-yl)phenyl]-1-methylpyridin-2(1H)-one], the inhibitory constant (Ki) turned out to be 38 nM. Against the preceding molecule, the Ki is about 15-fold higher.

Molecule `Cc1cc(F)cc(C)c1Oc1ccc(C(C)(C)O)cc1-c1cn(C)c(=O)cc1O[C@H]1CC[C@H](NC(=O)C2(C(N)=O)CC2)CC1` [Example 111, N-[trans-4-({5-[2-(4-fluoro-2,6-dimethylphenoxy)-5-(2-hydroxypropan-2-yl)phenyl]-1-methyl-2-oxo-1,2-dihydropyridin-4-yl}oxy)cyclohexyl]cyclopropane-1,1-dicarboxamide] had a Ki of 4.11 nM.

`Cc1cc(F)cc(C)c1Oc1ccc(C(C)(C)O)cc1-c1cn(C)c(=O)cc1O[C@H]1CC[C@H](N2C(=O)N[C@H](C)C2=O)CC1` [Example 132, (5R)-3-[trans-4-({5-[2-(4-fluoro-2,6-dimethylphenoxy)-5-(2-hydroxypropan-2-yl)phenyl]-1-methyl-2-oxo-1,2-dihydropyridin-4-yl}oxy)cyclohexyl]-5-methylimidazolidine-2,4-dione] displayed a Ki of 2.76 nM.

For `Cc1cc(F)cc(C)c1Oc1ccc(C(C)(C)O)cc1-c1cn(C)c(=O)cc1O[C@H]1CC[C@H](NC(=O)C(C)(C)N)CC1` [Example 139, N-[trans-4-({5-[2-(4-fluoro-2,6-dimethylphenoxy)-5-(2-hydroxypropan-2-yl)phenyl]-1-methyl-2-oxo-1,2-dihydropyridin-4-yl}oxy)cyclohexyl]-2-methylalaninamide], the affinity corresponds to a Ki of 8.42 nM.

In turn, `C=CC(=O)N[C@H]1CC[C@H](Oc2cc(=O)n(C)cc2-c2cc(C(C)(C)O)ccc2Oc2c(C)cc(F)cc2C)CC1` [Example 28, N-[trans-4-({5-[2-(4-fluoro-2,6-dimethylphenoxy)-5-(2-hydroxypropan-2-yl)phenyl]-1-methyl-2-oxo-1,2-dihydropyridin-4-yl}oxy)cyclohexyl]prop-2-enamide] returned a Ki of 1.68 nM.

Consider `Cc1cc(F)cc(C)c1Oc1ccc(C(C)(C)O)cc1-c1cn(C)c(=O)cc1O[C@H]1CC[C@H](N2C(=O)O[C@@H](C)C2=O)CC1` [Example 92, (5S)-3-[trans-4-({5-[2-(4-fluoro-2,6-dimethylphenoxy)-5-(2-hydroxypropan-2-yl)phenyl]-1-methyl-2-oxo-1,2-dihydropyridin-4-yl}oxy)cyclohexyl]-5-methyl-1,3-oxazolidine-2,4-dione], for which affinity was put at a Ki of 4.08 nM.
